The values below come from the supplement of paper PMC4604168 (melanoma cell lines).

This is one part of the list. Single values are uncertain, as repeats are few or missing.

Test systems include A101D; A2058; A375.
Common to all, as to assay: cell count relative to DMSO control; melanoma cells; higher = more viable cells
Holding throughout (conditions): library dose: standard library concentration; 72 h
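Further: cells treated in 1,536-well plates, then fixed and DAPI-stained, with nuclei counted from automated high-throughput microscope images.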

Regarding `Cc1cc(Nc2cc(N3CCN(C)CC3)nc(/C=C/c3ccccc3)n2)n[nH]1` + O=C(CCCCCCC(=O)Nc1ccccc1)NO [vorinostat] (first compound 0.2 µM, partner dose 0.4 µM), the cell count was 70.1% with A101D, 72.2% with A2058 and 85.8% with A375.

Consider `Cn1c(=O)n(-c2ccc(C(C)(C)C#N)cc2)c2c3cc(-c4cnc5ccccc5c4)ccc3ncc21` + O=C(O)c1ccc2c(c1)nc(Nc1cccc(Cl)c1)c1ccncc12 [CX4945] (first compound 0.02 µM, partner dose 2 µM), for which the figures for the cell count in the assay on A101D, in the assay on A2058 and with A375 were 85%, 64.4% and 82.5%, respectively.

For `CC(C)C[C@H](NC(=O)[C@H](Cc1ccccc1)NC(=O)c1cnccn1)B(O)O` [Bortezomib] + OCc1c[nH]c2ccccc12 [Indole-3-carbinol] (first compound 0.005 µM, partner dose 4 µM), the cell count with A101D turned out to be 11.9%; in the assay with A2058 it was 10.3%; with A375, 70.3%.

Turning to `COc1ccc(C2=N[C@@H](c3ccc(Cl)cc3)[C@@H](c3ccc(Cl)cc3)N2C(=O)N2CCNC(=O)C2)c(OC(C)C)c1` [Nutlin-3] + O=C(CCCCCCC(=O)Nc1ccccc1)NO [vorinostat] (first compound 0.5 µM, partner dose 0.4 µM), the cell count is 57.9% in the assay on A101D, 91.9% in the assay with A2058 and 85.2% in the assay on A375.

Regarding `Cn1c(=O)n(-c2ccc(C(C)(C)C#N)cc2)c2c3cc(-c4cnc5ccccc5c4)ccc3ncc21` + OCc1c[nH]c2ccccc12 [Indole-3-carbinol] (first compound 0.02 µM, partner dose 4 µM), the cell count in the assay with A101D was found to be 77.4%; in the assay with A2058 it was 73.7%; with A375, 111%.

As to `Cc1cc(Nc2cc(N3CCN(C)CC3)nc(/C=C/c3ccccc3)n2)n[nH]1` + C=CCn1c(=O)c2cnc(Nc3ccc(N4CCN(C)CC4)cc3)nc2n1-c1cccc(C(C)(C)O)n1 [MK1775] (first compound 0.2 µM, partner dose 0.1 µM), the cell count is 55.4% in the assay on A101D, 80.3% in the assay with A2058 and 50.1% with A375.

In the case of `CC(C)C[C@H](NC(=O)[C@H](Cc1ccccc1)NC(=O)c1cnccn1)B(O)O` [Bortezomib] + CC(=O)c1c(C)c2cnc(Nc3ccc(N4CCNCC4)cn3)nc2n(C2CCCC2)c1=O [palbociclib] (first compound 0.005 µM, partner dose 0.2 µM), the results for the cell count with A101D, with A2058 and in the assay with A375 were 12.5%, 13.1% and 83.2%, respectively.

As to `COc1ccc(C2=N[C@@H](c3ccc(Cl)cc3)[C@@H](c3ccc(Cl)cc3)N2C(=O)N2CCNC(=O)C2)c(OC(C)C)c1` [Nutlin-3] + OCc1c[nH]c2ccccc12 [Indole-3-carbinol] (first compound 0.5 µM, partner dose 4 µM), the cell count stood at 75.3% with A101D, 112% in the assay on A2058 and 91% in the assay with A375.

For the compound `Cc1cn(-c2cc(NC(=O)c3ccc(C)c(Nc4nccc(-c5cccnc5)n4)c3)cc(C(F)(F)F)c2)cn1` [nilotinib] + CS(=O)(=O)c1ccc(C(=O)Nc2ccc(Cl)c(-c3ccccn3)c2)c(Cl)c1 [vismodegib] (first compound 1 µM, partner dose 5 µM), the cell count in the assay on A101D was 98.6%; in the assay with A2058, 123%; in the assay on A375, 159%.

`Cn1c(=O)n(-c2ccc(C(C)(C)C#N)cc2)c2c3cc(-c4cnc5ccccc5c4)ccc3ncc21` + NC(=O)Nc1cc(-c2cccc(F)c2)sc1C(=O)N[C@H]1CCCNC1 [AZD7762] (first compound 0.02 µM, partner dose 0.1 µM): the cell count is 59.5% in the assay with A101D, 61.5% with A2058 and 45.9% in the assay with A375.

For the compound `Cc1cn(-c2cc(NC(=O)c3ccc(C)c(Nc4nccc(-c5cccnc5)n4)c3)cc(C(F)(F)F)c2)cn1` [nilotinib] + COc1ccc(C2=N[C@@H](c3ccc(Cl)cc3)[C@@H](c3ccc(Cl)cc3)N2C(=O)N2CCNC(=O)C2)c(OC(C)C)c1 [Nutlin-3] (first compound 1 µM, partner dose 0.5 µM), the cell count with A101D came to 64.7%; in the assay with A2058 it was 103%; with A375 it was 83.2%.

On to `COc1ccc(C2=N[C@@H](c3ccc(Cl)cc3)[C@@H](c3ccc(Cl)cc3)N2C(=O)N2CCNC(=O)C2)c(OC(C)C)c1` [Nutlin-3] + CS(=O)(=O)CCNCc1ccc(-c2ccc3ncnc(Nc4ccc(OCc5cccc(F)c5)c(Cl)c4)c3c2)o1 [lapatinib] (first compound 0.5 µM, partner dose 4 µM), for which the cell count with A101D is 79%; with A2058, 110%; in the assay on A375, 121%.

With `CC(C)C[C@H](NC(=O)[C@H](Cc1ccccc1)NC(=O)c1cnccn1)B(O)O` [Bortezomib] + NC(=O)Nc1cc(-c2cccc(F)c2)sc1C(=O)N[C@H]1CCCNC1 [AZD7762] (first compound 0.005 µM, partner dose 0.1 µM), the cell count with A101D was determined as 26.6%; in the assay with A2058 it was 16.6%; in the assay on A375 it was 64.1%.

Turning to `COc1ccc(C2=N[C@@H](c3ccc(Cl)cc3)[C@@H](c3ccc(Cl)cc3)N2C(=O)N2CCNC(=O)C2)c(OC(C)C)c1` [Nutlin-3] + OCCn1cc(-c2cnc3nnn(Cc4ccc5ncccc5c4)c3n2)cn1 [PF04217903] (first compound 0.5 µM, partner dose 5 µM), the cell count with A101D amounted to 58.9%; in the assay with A2058, 106%; in the assay with A375, 86.8%.

In the case of `Cn1c(=O)n(-c2ccc(C(C)(C)C#N)cc2)c2c3cc(-c4cnc5ccccc5c4)ccc3ncc21` + Cn1nnc2c(C(N)=O)ncn2c1=O [temozolomide] (first compound 0.02 µM, partner dose 10 µM), the cell count in the assay on A101D came out at 68.5%; in the assay with A2058, 37.5%; with A375, 75%.

For `Cc1cc(Nc2cc(N3CCN(C)CC3)nc(/C=C/c3ccccc3)n2)n[nH]1` + OCc1c[nH]c2ccccc12 [Indole-3-carbinol] (first compound 0.2 µM, partner dose 4 µM), the cell count turned out to be 107% in the assay on A101D, 90.2% in the assay with A2058 and 93.7% with A375.

Turning to `Cc1cn(-c2cc(NC(=O)c3ccc(C)c(Nc4nccc(-c5cccnc5)n4)c3)cc(C(F)(F)F)c2)cn1` [nilotinib] + Cc1cc(N2CCOCC2)cc2[nH]c(-c3c(NC[C@@H](O)c4cccc(Cl)c4)cc[nH]c3=O)nc12 [BMS536924] (first compound 1 µM, partner dose 1 µM), the values for the cell count in the assay on A101D, with A2058 and with A375 were 75.1%, 98.3% and 117%, respectively.

Turning to `CC(C)C[C@H](NC(=O)[C@H](Cc1ccccc1)NC(=O)c1cnccn1)B(O)O` [Bortezomib] + CC(C)(C)c1cnc(CSc2cnc(NC(=O)C3CCNCC3)s2)o1 [SNS-032] (first compound 0.005 µM, partner dose 0.05 µM), the cell count in the assay on A101D was determined as 6.65%; with A2058, 19.6%; in the assay with A375 it was 79.4%.

As for `Cc1cc(Nc2cc(N3CCN(C)CC3)nc(/C=C/c3ccccc3)n2)n[nH]1` + Nc1ccn([C@@H]2O[C@H](CO)[C@@H](O)C2(F)F)c(=O)n1 [gemcitabine] (first compound 0.2 µM, partner dose 0.002 µM), the figures for the cell count with A101D, with A2058 and with A375 were 98.3%, 81.9% and 82.4%, respectively.

On to `Cn1c(=O)n(-c2ccc(C(C)(C)C#N)cc2)c2c3cc(-c4cnc5ccccc5c4)ccc3ncc21` + O=C(CCCCCCC(=O)Nc1ccccc1)NO [vorinostat] (first compound 0.02 µM, partner dose 0.4 µM), for which the cell count in the assay on A101D stood at 74.1%; in the assay with A2058, 80.4%; in the assay with A375 it was 86.1%.

As to `Cc1cc(Nc2cc(N3CCN(C)CC3)nc(/C=C/c3ccccc3)n2)n[nH]1` + CN1CCN(c2ccc3nc(-c4c(N)c5c(F)cccc5[nH]c4=O)[nH]c3c2)CC1 [Dovitinib] (first compound 0.2 µM, partner dose 0.5 µM), the cell count is 73% with A101D, 37.7% in the assay with A2058 and 74.1% in the assay with A375.

Turning to `Cn1c(=O)n(-c2ccc(C(C)(C)C#N)cc2)c2c3cc(-c4cnc5ccccc5c4)ccc3ncc21` + Cc1cc(N2CCOCC2)cc2[nH]c(-c3c(NC[C@@H](O)c4cccc(Cl)c4)cc[nH]c3=O)nc12 [BMS536924] (first compound 0.02 µM, partner dose 1 µM), the results for the cell count with A101D, in the assay on A2058 and with A375 were 60%, 56.8% and 113%, respectively.

Take `Cn1c(=O)n(-c2ccc(C(C)(C)C#N)cc2)c2c3cc(-c4cnc5ccccc5c4)ccc3ncc21` + Nc1ccn([C@@H]2O[C@H](CO)[C@@H](O)C2(F)F)c(=O)n1 [gemcitabine] (first compound 0.02 µM, partner dose 0.002 µM): the cell count in the assay on A101D is 72.5%; with A2058, 34.7%; in the assay on A375, 103%.

On to `COc1ccc(C2=N[C@@H](c3ccc(Cl)cc3)[C@@H](c3ccc(Cl)cc3)N2C(=O)N2CCNC(=O)C2)c(OC(C)C)c1` [Nutlin-3] + COc1cc2c(Oc3ccc4[nH]c(C)cc4c3F)ncnc2cc1OCCCN1CCCC1 [cediranib] (first compound 0.5 µM, partner dose 2 µM), for which the cell count in the assay on A101D is 68.6%; in the assay with A2058, 102%; with A375, 90.6%.

Consider `Cn1c(=O)n(-c2ccc(C(C)(C)C#N)cc2)c2c3cc(-c4cnc5ccccc5c4)ccc3ncc21` + COc1cc2c(Oc3ccc4[nH]c(C)cc4c3F)ncnc2cc1OCCCN1CCCC1 [cediranib] (first compound 0.02 µM, partner dose 2 µM), for which the values for the cell count in the assay with A101D, in the assay on A2058 and with A375 were 78.9%, 55.1% and 80.7%, respectively.

On to `Cn1c(=O)n(-c2ccc(C(C)(C)C#N)cc2)c2c3cc(-c4cnc5ccccc5c4)ccc3ncc21` + CNC(=O)c1cc(Oc2ccc(NC(=O)Nc3ccc(Cl)c(C(F)(F)F)c3)cc2)ccn1 [sorafenib] (first compound 0.02 µM, partner dose 2 µM), for which the cell count was 83% in the assay with A101D, 64.6% with A2058 and 84.7% with A375.

On to `CC(C)C[C@H](NC(=O)[C@H](Cc1ccccc1)NC(=O)c1cnccn1)B(O)O` [Bortezomib] + O=C(Nc1cccc(Cl)c1)Nc1ncc(CCNc2ncnc3ccsc23)s1 [SNS314] (first compound 0.005 µM, partner dose 0.004 µM), for which the values for the cell count with A101D, in the assay on A2058 and with A375 were 20%, 10.7% and 86.1%, respectively.

As to `Cc1cn(-c2cc(NC(=O)c3ccc(C)c(Nc4nccc(-c5cccnc5)n4)c3)cc(C(F)(F)F)c2)cn1` [nilotinib] + C=CCNC1=C2C[C@@H](C)C[C@H](OC)[C@H](O)[C@@H](C)/C=C(\C)[C@H](OC(N)=O)[C@@H](OC)/C=C\C=C(/C)C(=O)NC(=CC1=O)C2=O [Tanespimycin] (first compound 1 µM, partner dose 0.01 µM), the cell count was found to be 87.2% in the assay with A101D, 95.6% in the assay with A2058 and 108% in the assay with A375.
